Test results reported in PubChem BioAssay AID1347417 (National Center for Advancing Translational Sciences (NCATS), 2020).
Screen size: about 120,000 compounds; about 5,300 (4.4%) were called active. The shares of active, inactive and inconclusive entries below differ from those in the screen. Calls follow the shape of the dose curve; as a rule, active = well fitted inhibition curve with a large enough effect; inconclusive = small, poorly fitted or top-dose-only effect; inactive = no such curve, though single readings can be large or run the other way. Potencies of inconclusive entries are doubtful fits and often do not repeat.

test: qHTS Primary assay for Inhibitors of Plasmodium falciparum Dd2 growth in vitro; also: nearly all actives have a fitted effect of over 65% in size; conditions: P. falciparum Dd2 growth, SYBR Green, 72 h; series mostly up to 28.9 µM
Method in brief: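 Readout: SYBR Green fluorescence, 485 nm excitation, 535 nm emission, after ~16 h lysis at 37C. Before that, Dd2-infected red cells (2.5% hematocrit) grew 72 h with compound, 29 uM top final concentration.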
Potency is read from the fitted curve at half-maximal effect; tags tell the direction and shape of the fitted curve.

Row | Compound | Potency
1 | Cc1cn2nc(C(=O)Nc3cccc(F)c3C)cc2c(N2CCCC2)n1 | inactive
2 | CN(C)C[C@@H]1CN(c2ncccn2)C[C@H]1NC(=O)c1cc2ccccc2[nH]1 | inconclusive: 5.62 µM [inhibitor, partial curve, poor fit]
3 | COC(=O)[C@@H]1Cc2ncn(Cc3ccc(Cl)cc3)c2CN1Cc1cccc(C#N)c1 | active: 11.2 µM
4 | COc1cccc(S(=O)(=O)N2CCCN(S(=O)(=O)c3ccccc3)CCC(=O)NCC2)c1 | inconclusive: 17.8 µM [inhibitor, single point]
5 | C[S+](=O)([O-])N1CCC2(CC1)CC(Cc1ccccc1)=NO2 | inactive
6 | CC1=C(C(=O)Nc2ccccc2)C(c2ccccc2Cl)n2ncc(C(=O)Nc3cccc(C)c3)c2N1 (stereo not given) | active: 3.16 µM
7 | O=C(NC1CCCC1)N1CCCC(Cc2nncn2Cc2ccccc2)C1 (stereo not given) | inactive
8 | COc1ccc2nc3n(c2c1)[C@@H](CNS(=O)(=O)c1ccccc1)COC3 | active: 8.91 µM
9 | CN(C)Cc1cc(CC2(NCc3ccc(F)cc3)COC2)no1 | inconclusive: 31.6 µM [inhibitor, single point]
10 | O=C1c2c(nc(CN3CCN(c4ccccn4)CC3)n2Cc2ccccc2)NCCN1CC1CC1 | inconclusive: 3.98 µM [inhibitor, partial curve, poor fit]
11 | COc1ccc(-c2cc(C(=O)OCC(=O)c3cccc(OC)c3)c3cccc(Cl)c3n2)cc1 | inconclusive: 11.2 µM [inhibitor, single point]
12 | COc1cccc(CN2C(=O)OC3(CCN(C(=O)C(C)C)CC3)C2(C)c2cccnc2)c1 (stereo not given) | inactive
13 | O=C1Nc2ccc(-c3ccccc3F)cc2C(=O)N2CCN(C(=O)c3ccco3)C[C@@H]12 | inconclusive: 31.6 µM [inhibitor, single point]
14 | COC(=O)[C@@H]1Cc2ncn(Cc3ccc(Cl)cc3)c2CN1S(=O)(=O)c1ccc(C(C)=O)cc1 | inconclusive: 12.6 µM [inhibitor, single point]
15 | COc1cccc(NC(=O)C2CCCN2S(=O)(=O)c2ccc3nc(-c4ccccc4)[nH]c3c2)c1 (stereo not given) | inconclusive: 17.8 µM [inhibitor, single point]
16 | COc1cccc(N2CCN(C(=O)c3c4c(nc5ccccc35)C(=O)N(C3CCCCC3)C4)CC2)c1 | inconclusive: 10 µM [inhibitor, single point]
17 | Cc1cc(SCC(=O)Nc2nsc(-c3ccc(C(C)(C)C)cc3)n2)nc2ccccc12 | inconclusive: 11.2 µM [inhibitor, single point]
18 | CCNC(=O)C1CCN(Cc2nc(-c3cccc(Oc4ccccc4)c3)oc2C)C1 (stereo not given) | inconclusive: 1.58 µM [inhibitor, full curve]
19 | COc1ccc(S(=O)(=O)N2CCCC(Cc3nncn3C)C2)cc1 (stereo not given) | inactive
20 | Cc1ccccc1CN1C[C@@H]2C[C@H]1C(=O)N(C)c1ccccc1O2 | inconclusive: 11.2 µM [inhibitor, single point]
21 | CCOCCOC1CCN(C(=O)c2n[nH]c3ccccc23)CC1 | inactive
22 | CN(Cc1ccccc1)Cc1cc(CC2(NCc3ccccc3O)COC2)no1 | inactive

Row | Compound | Potency
23 | Cn1cc(CN2C[C@H](C(=O)Nc3ccccc3)C[C@H]2c2cccc(C(F)(F)F)c2)cn1 | inconclusive: 3.98 µM [inhibitor, full curve]
24 | COc1ccc(Cl)cc1NC(=O)NCCc1noc(C2CC2)n1 | inactive
25 | CN(C)C[C@@H]1CN(c2ccncn2)C[C@H]1NC(=O)c1ccc2ccccc2n1 | inconclusive: 5.62 µM [inhibitor, partial curve, poor fit]
26 | Cn1ccc(NC(=O)C(C)(C)Oc2nn(CC3CC3)c3ccc(CN4CCCC4)cc23)n1 | inconclusive: 2.51 µM [inhibitor, partial curve, poor fit]
27 | COc1ccc(Cn2c(C3CCN(C(=O)c4ccc(C)c(F)c4)CC3)n[nH]c2=O)cc1 | inconclusive: 17.8 µM [inhibitor, single point]
28 | Cc1onc(-c2cnn(C)c2NCc2ccc(C#N)cc2)c1C(=O)NCC1CCOCC1 | inconclusive: 5.62 µM [inhibitor, partial curve, poor fit]
29 | Cc1ccc(NC(=O)N[C@@H](Cc2ccccc2)C(=O)N2CCCOCCNC(=O)CC2)cc1C | inconclusive: 20 µM [inhibitor, single point]
30 | CN(C)C(C(=O)N1CCC(O)(c2ccccc2)CC1)c1cccc(F)c1 (stereo not given) | inconclusive: 8.91 µM [inhibitor, partial curve]
31 | CCOCCCNCc1ccc(-c2ccccc2)o1 | active: 11.2 µM
32 | COc1ccc(CC2(CO)CCN(c3cc(OC)nc(N)n3)CC2)cc1 | inactive
33 | OCC1CN(C2CCC2)CC12CCN(Cc1cc(F)ccc1F)CC2 (stereo not given) | inconclusive: 6.31 µM [inhibitor, partial curve, poor fit]
34 | COc1ccc(C(=O)N2CCC3(CC2)CC(c2cccc(C(F)(F)F)c2)=NO3)cc1 | inconclusive: 14.1 µM [inhibitor, single point]
35 | COc1ccc(S(=O)(=O)N2CCC(CC(=O)NCc3ccccc3)C2)cc1 (stereo not given) | inconclusive: 0.0631 µM [inhibitor, full curve, poor fit]
36 | O=C(Nc1ccc(Cl)cc1)c1nc2c(o1)CCN(Cc1ccc3cn[nH]c3c1)CC2 | inconclusive: 3.16 µM [inhibitor, partial curve, poor fit]
37 | Cc1cccc(C(=O)N2CC(c3nnc(C(C)C)o3)C3(CCOCC3)C2)c1 (stereo not given) | inactive
38 | Cc1ccc(Nc2ccc3c(n2)CN(C)C(=O)CO3)c(C)c1 | inactive
39 | Cc1ccc(C)c(N2CCN(C(=O)C3CCCN(S(=O)(=O)c4cccc5nonc45)C3)CC2)c1 (stereo not given) | inconclusive: 17.8 µM [inhibitor, single point]
40 | CN(C)c1ccc(CN2CCOC[C@H]2c2ncc(-c3ccc(F)cc3)[nH]2)cc1 | inactive
41 | CCOC(=O)c1c(NC(=O)CSc2cn(CCNC(=O)c3c(F)cccc3F)c3ccccc23)sc2c1CCCC2 | inconclusive: 8.91 µM [inhibitor, partial curve, poor fit]
42 | Cc1ccc2c(n1)N(C)[C@H](CO)CCN(Cc1ccc(Cl)cc1)C2 | inconclusive: 2.82 µM [inhibitor, partial curve, poor fit]
43 | Cc1nc(CN2C(=O)OC3(CCN(C(=O)Cc4ccc5c(c4)OCO5)CC3)C2(C)c2ccccc2)cs1 (stereo not given) | inconclusive: 0.251 µM [inhibitor, full curve]
44 | O=C(Nc1ccc(F)cc1F)N1CCc2c(sc3c2CCCC3)C1c1ccc(F)cc1 (stereo not given) | inconclusive: 10 µM [inhibitor, single point]

Row | Compound | Potency
45 | CCNC(=O)N1CC(Oc2ccc(-c3nc(-c4ccccc4)no3)cc2)C1 | inconclusive: 3.98 µM [inhibitor, single point]
46 | CCC1=C(c2ccc(C)cc2)S(=O)(=O)N=C1N1CCC(C(=O)NCc2ccc(C)cc2)CC1 | inconclusive: 12.6 µM [inhibitor, single point]
47 | O=C1NC2(CCCN(C(=O)c3ccc(C(F)(F)F)cc3)C2)COc2ccccc21 (stereo not given) | inactive
48 | Cc1ccc(C(=O)/C=C/c2cn(CC(O)CN3CCCCCC3)c3ccccc23)cc1 (stereo not given) | active: 12.6 µM
49 | COc1cc(C(=O)Nc2nc3c(s2)C[C@]2(C)CC[C@@H]4[C@H](OC(=O)[C@H]4C)[C@H]2[C@@H]3C)cc(OC)c1OC | inactive
50 | CCCOc1ccc(-c2cccc(NS(=O)(=O)c3ccc(CC)cc3)c2)nn1 | inconclusive: 11.2 µM [inhibitor, single point]
51 | O=C(C[C@H]1NC(=O)c2ccccc2NC1=O)Nc1nnc(Cc2ccccc2)s1 | inconclusive: 12.6 µM [inhibitor, partial curve, poor fit]
52 | CCCN(CC1CC1)C(=O)CCC1CCN(S(=O)(=O)c2ccccc2)CC1 | inconclusive: 17.8 µM [inhibitor, single point]
53 | COc1cc2c(C(=O)N3CCN(c4cc(Cl)ccc4C)CC3)cn(CC(C)C)c(=O)c2cc1OC | inconclusive: 0.398 µM [inhibitor, full curve, poor fit]
54 | COc1ccc(C(=O)N2CCCN(S(C)(=O)=O)C(c3ccccc3)CC(=O)NCC2)c(OC)n1 (stereo not given) | inactive
55 | O=C(NC1CC1)[C@@H]1CN(Cc2ccc(OC(F)(F)F)cc2)C[C@H]1CO | active: 12.6 µM
56 | CC(C)OCCCNC(=O)c1ccc2c(c1)N(S(C)(=O)=O)CC2 | inactive
57 | COc1ccc(F)cc1CN1CCCC(CO)(CC2CC2)C1 (stereo not given) | inconclusive: 3.98 µM [inhibitor, partial curve, poor fit]
58 | CC(C)NC(=O)N(C1CC1)C1CCOC2(CCN(C(=O)C3CCCC3)CC2)C1 (stereo not given) | inactive
59 | COCCNC(=O)C[C@@H]1c2nc(-c3ccccc3)sc2C[C@@H]2[C@](C)(CO)[C@H](O)CC[C@]21C | inactive
60 | Cc1ccc(C2c3c(-c4ccccc4O)n[nH]c3C(=O)N2CCc2ccccc2)cc1 (stereo not given) | active: 10 µM
61 | Cc1nnn2c(C(=O)NCc3ccc(Cl)cc3)cccc12 | inconclusive: 31.6 µM [inhibitor, single point]
62 | O=C(c1ccccc1)N1CC2(CCCN2Cc2cccnc2)Cc2ccccc21 (stereo not given) | inconclusive: 8.91 µM [inhibitor, single point]
63 | COc1cc(OC)cc(C(=O)N2CCC3(CC2)N=C(c2ccc(C)cc2)NO3)c1 | inconclusive: 17.8 µM [inhibitor, single point]
64 | COC[C@@H]1CN(C(=O)c2cccc(Cl)c2)C[C@H]1C(N)=O | inactive
65 | COc1ccc(NCc2cc3cc4c(cc3n(CC(=O)Nc3ccccc3)c2=O)OCO4)cc1 | inconclusive: 17.8 µM [inhibitor, single point]
